PubChem BioAssay AID1460 (National Center for Advancing Translational Sciences (NCATS), 2008)
About 5,800 (2.1%) of roughly 270,000 compounds were called active. This list was built around the results that the source calls inconclusive (neither active nor inactive); the mix of calls is not that of the screen. Calls follow the shape of the dose curve; as a rule, active = well fitted inhibition curve with a large enough effect; inconclusive = small, poorly fitted or top-dose-only effect; inactive = flat fitted curve, though single readings scatter. A potency beside an inconclusive call is a rough fit, not a confirmed value.

Target: Microtubule-associated protein tau (Homo sapiens) (UniProt P10636)
UniProt P10636, sequence (P10636 whole entry, looked up): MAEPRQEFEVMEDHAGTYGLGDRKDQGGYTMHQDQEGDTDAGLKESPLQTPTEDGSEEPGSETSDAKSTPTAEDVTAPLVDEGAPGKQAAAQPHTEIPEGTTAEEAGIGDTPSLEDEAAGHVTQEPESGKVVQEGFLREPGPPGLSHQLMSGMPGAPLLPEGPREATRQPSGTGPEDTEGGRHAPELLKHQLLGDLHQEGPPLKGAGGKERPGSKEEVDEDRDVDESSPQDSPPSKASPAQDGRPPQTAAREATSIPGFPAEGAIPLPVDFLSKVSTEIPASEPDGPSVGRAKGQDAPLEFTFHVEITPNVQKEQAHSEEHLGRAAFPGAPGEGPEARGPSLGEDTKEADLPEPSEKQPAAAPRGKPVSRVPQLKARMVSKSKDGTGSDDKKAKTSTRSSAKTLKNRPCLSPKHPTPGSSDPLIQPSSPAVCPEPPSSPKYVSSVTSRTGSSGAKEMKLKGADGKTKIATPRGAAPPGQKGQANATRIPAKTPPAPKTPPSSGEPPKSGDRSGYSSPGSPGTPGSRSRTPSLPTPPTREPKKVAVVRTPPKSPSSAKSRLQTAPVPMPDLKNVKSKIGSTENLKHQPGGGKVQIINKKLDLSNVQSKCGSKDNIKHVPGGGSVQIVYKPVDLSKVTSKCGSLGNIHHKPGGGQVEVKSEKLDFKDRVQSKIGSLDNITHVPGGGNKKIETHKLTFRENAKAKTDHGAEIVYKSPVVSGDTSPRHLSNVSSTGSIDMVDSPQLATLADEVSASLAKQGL
Assay: qHTS for Inhibitors of Tau Fibril Formation, Thioflavin T Binding; also: nearly all actives have a fitted effect of over 55% in size
Conditions: recombinant tau K18 P301L (four-repeat tau fragment), heparin-induced fibrillization, ThT fluorescence; series mostly up to 57.4 µM
Method in brief: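 Tau K18 P301L fragment (15 uM unlabeled plus 0.24 uM Alexa 594-labeled) in 100 mM sodium acetate pH 7 with compound, fibrillization induced by 20 uM heparin for 6 hr at 37 C. Thioflavin T (30 uM) added, fluorescence read after 1 hr (ex 450, em 510 nm).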
% is scaled to controls: 0 for no effect and ±100 for the full control effect; potency is read from the fitted curve at half-maximal effect; tags tell the direction and shape of the fitted curve.

| Structure (SMILES) | Potency | activity, negative = inhibition |
| --- | --- | --- |
| Nc1ccc(Br)c2cccnc12 | inconclusive: 25.1 µM [inhibitor, partial curve] | – |
| O=C(N/N=C/c1ccc(N2CCCCC2)o1)c1ccccc1 | inconclusive: 10 µM [inhibitor, partial curve] | – |
| CCn1c(/C=C/N(C(C)=O)c2ccccc2)[n+](CC)c2ccc(Cl)cc21 | inactive | – |
| Cc1cccc(N2CCN(C(=O)c3ccc4nc(N5CCC(C)CC5)sc4c3)CC2)c1C | inconclusive: 2 µM [inhibitor, full curve, poor fit] | – |
| O=C(CSc1nc(Nc2ccccc2)nc(N2CCOCC2)n1)Nc1ccc([N+](=O)[O-])cc1 | inconclusive: 17.8 µM [inhibitor, partial curve] | – |
| COc1cc(/C=N/NC(=O)c2sc(N)c(C#N)c2C)ccc1O | inconclusive: 14.1 µM [inhibitor, partial curve] | – |
| O=C(/C=C/c1c(Cl)cccc1Cl)N1CCN(c2ncccn2)CC1 | inconclusive: 25.1 µM [inhibitor, single point] | – |
| CCn1c(SCc2nc3ccccc3c(=O)[nH]2)nc2ccccc2c1=O | inconclusive: 12.6 µM [inhibitor, single point] | – |
| Cc1ccc2c(Sc3ccc(Cl)cc3)c(C(=O)NCCC(C)C)[nH]c2c1 | inconclusive: 39.8 µM [inhibitor, single point] | – |
| CC[C@@H]1CC=C[C@H]2[C@H]1C(=O)N(Cc1ccccc1)[C@H]2c1ccc(OC)c(Cl)c1 | inconclusive: 28.2 µM [inhibitor, single point] | – |
| O=C(NCc1ccco1)c1cccc(NS(=O)(=O)c2ccccc2F)c1 | inactive | – |
| Cc1nc2sc(C)c(C)n2c(=O)c1S(=O)(=O)N1CCN(c2ccccc2F)CC1 | inconclusive: 17.8 µM [inhibitor, single point] | – |
| COc1ccc(S(=O)(=O)N(C(=O)C(C)C)c2ccc3oc(=O)sc3c2)cc1 | inconclusive: 14.1 µM [inhibitor, partial curve] | – |
| CSc1nncc(/C(C)=N\Nc2ccccc2)n1 | active: 2.82 µM | – |
| CCOc1cc(C2C3=C(CCCC3=O)N(C)C3=C2C(=O)CCC3)cc(Cl)c1O | inactive | – |
| O=C(CSc1nc2ccccc2s1)NNC(=S)Nc1ccc(Br)cc1 | inconclusive: 35.5 µM [inhibitor, partial curve, poor fit] | – |
| CN1CCN(Cc2nc3ccccc3c(=O)n2Cc2nc(-c3ccc([N+](=O)[O-])cc3)cs2)CC1 | inconclusive: 35.5 µM [inhibitor, single point] | – |
| CCn1ccc2cc(S(=O)(=O)N3CCCN(C(=O)Nc4ccccc4F)CC3)ccc21 | inactive | – |
| S=C(c1ccc(-c2cccc(Cl)c2)o1)N1CCCCC1 | inconclusive: 12.6 µM [inhibitor, partial curve] | – |
| CCOc1cc(C2c3c(-c4cc(C)ccc4O)n[nH]c3C(=O)N2CCCOC(C)C)ccc1O (centres undefined) | inconclusive: 17.8 µM [inhibitor, partial curve, poor fit] | – |
| COC(=O)CCc1sc(Nc2ccc(Br)cc2)nc1-c1ccc(OC)cc1 | inconclusive: 10 µM [inhibitor, partial curve] | – |
| COc1ccc(-c2noc(COc3ccccc3OC)n2)cc1OC | inconclusive: 11.2 µM [inhibitor, partial curve] | – |
| COc1ccc(N=Cc2c(O)ccc3ccccc23)cc1 | active: 8.91 µM | – |

| Structure (SMILES) | Potency | activity, negative = inhibition |
| --- | --- | --- |
| CCOC(=O)C1CCCN(S(=O)(=O)c2cc(-c3cc(C)no3)ccc2OC)C1 (centres undefined) | inactive | – |
| CC(=O)Nc1ccc(C2=NNC(=NCC3CCCO3)SC2)cc1 (centres undefined) | inconclusive: 31.6 µM [inhibitor, single point] | – |
| COc1ccccc1NC(=O)CSc1ncc2c(n1)-c1ccccc1N(Cc1ccccc1C)S2(=O)=O | inactive | – |
| CCOc1cc(N2CCCC2)ccc1[N+](=O)[O-] | inconclusive: 11.2 µM [inhibitor, partial curve] | – |
| CCn1c2ccccc2c2cc(/C=N/n3c(C)nnc3C)ccc21 | inactive | – |
| CCOc1ccc(-n2c(=S)sc3c(=O)[nH]c(SCC(=O)NCc4ccco4)nc32)cc1 | inactive | – |
| CN(CC(=O)N1CCCC1)S(=O)(=O)c1ccc2ccccc2c1 | inactive | – |
| COc1ccc2c(c1)CCc1c(C(=O)Nc3cc(OC)c(Cl)cc3OC)noc1-2 | inactive | – |
| COC(=O)c1cc(Nc2nc3ccccc3nc2NS(=O)(=O)c2ccc(C)cc2)ccc1Cl | inconclusive: 8.91 µM [inhibitor, partial curve] | – |
| COc1ccc(OCC(O)CNC(=O)/C=C/c2cccc([N+](=O)[O-])c2)cc1 (centres undefined) | inconclusive: 14.1 µM [inhibitor, partial curve] | – |
| COc1ccc(-n2c(CN3CCN(Cc4ccccc4)CC3)nc3ccc([N+](=O)[O-])cc3c2=O)c(OC)c1 | inconclusive: 20 µM [inhibitor, partial curve] | – |
| Cc1cc(C)n(-c2nc(N(c3ccccc3)c3ccccc3)nc(-n3nc(C)cc3C)n2)n1 | active: 20 µM | – |
| O=C1c2cccc3c(N4CCCCC4)ccc(c23)C(=O)N1CCO | inconclusive: 25.1 µM [inhibitor, partial curve] | – |
| CCOc1ccc(C2C(C(=O)/C=C/c3ccco3)=C(O)C(=O)N2CCN2CCOCC2)cc1OC (centres undefined) | inconclusive: 12.6 µM [inhibitor, partial curve] | – |
| COc1ccc(NC(=S)NC(NC(=O)/C=C/c2ccccc2)C(Cl)(Cl)Cl)cc1 (centres undefined) | inactive | – |
| COc1ccc2cc([C@H](C)C(=O)O)ccc2c1 | inconclusive: 31.6 µM [inhibitor, partial curve, poor fit] | – |
| Clc1ccc(C2=CC(c3ccco3)n3ncnc3N2)cc1 (centres undefined) | inactive | – |
| CCOC(=O)c1cnn(-c2nc(-c3cccc(F)c3)cs2)c1C(F)(F)F | inconclusive: 20 µM [inhibitor, single point] | – |
| COC(=O)c1ccccc1S(=O)(=O)N1CCc2nc(-c3ccccc3)c3c(c2C1)CO[C@@H](C)C3 | – | inactive: 2.6% [at 11.5 µM] |
| C/C(=N\Nc1nnc(-c2ccccc2)c(-c2ccccc2)n1)c1cccc([N+](=O)[O-])c1 | inconclusive: 31.6 µM [inhibitor, partial curve] | – |
| COc1ccc(C)cc1NC(=O)CSc1nnc(-c2ccc(Br)cc2)o1 | inactive | – |
| COc1ccc(CNC(=O)c2sc3nc4n(c(=O)c3c2C)CCCC4)cc1 | inactive | – |
| CCOC(=O)C(=NCCOC)NNc1cc(Cl)ccc1Cl | inconclusive: 12.6 µM [inhibitor, partial curve] | – |

| Structure (SMILES) | Potency | activity, negative = inhibition |
| --- | --- | --- |
| CCCCCCn1c(SCC(=O)OC)nc2c1c(=O)[nH]c(=O)n2C | inactive | – |
| O=C(COc1ccccc1)NC1=NCCS1 | inactive | – |
| O=C(Nc1cc(-c2ccccc2)sc1C(=O)O)c1cccc(F)c1 | inconclusive: 28.2 µM [activator, partial curve] | – |
| COc1ccc(-n2c(N)c(C(=O)NCc3ccco3)c3nc4ccccc4nc32)c(OC)c1 | inconclusive: 17.8 µM [inhibitor, partial curve] | – |
| N#CC1=C(N)Oc2c(oc(CO)cc2=O)C1c1ccsc1 (centres undefined) | inactive | – |
| Cc1cc(C(F)F)n2ncc(C(=O)NCCc3ccc(Cl)cc3)c2n1 | inconclusive: 25.1 µM [inhibitor, partial curve, poor fit] | – |
| C=CCn1c(O)c(N=O)c2cc(C)ccc21 | inconclusive: 15.8 µM [inhibitor, partial curve] | – |
| CCC(C)n1c(=O)c2sccc2n2c(CCCC(=O)N3CCN(c4ccccc4)CC3)nnc12 (centres undefined) | inactive | – |
| Cc1cccc(-c2cc3nc4c(c(N5CCCC(O)C5)n3n2)CCC4)c1 (centres undefined) | inconclusive: 14.1 µM [inhibitor, partial curve, poor fit] | – |
| N#CC(C#N)=C1C=CC=CN1/C(=C\c1ccccc1)C(=O)c1cccs1 | inconclusive: 12.6 µM [inhibitor, partial curve] | – |
| O=C(Cn1c(=O)n(Cc2nc(-c3ccccc3)no2)c(=O)c2cc3c(cc21)OCO3)Nc1ccccc1 | inactive | – |
| COC(=O)c1c(NC(=O)CSc2nc(-c3ccco3)cc(C(F)(F)F)n2)sc2c1CCCC2 | inactive | – |
| COc1ccc(-c2csc3nc(C)nc(N4CCN(c5ccc(C(C)=O)cc5)CC4)c23)cc1OC | inconclusive: 22.4 µM [inhibitor, partial curve] | – |
| S=C(NCc1ccccc1)NC1CCCCC1 | inactive | – |
| CCn1c2ccccc2c2cc(CN3CCN(Cc4ccc(Br)cc4)CC3)ccc21 | inconclusive: 25.1 µM [inhibitor, single point] | – |
| Cc1ccc2cc(C)c(N3CCN(c4ccccn4)CC3)nc2c1 | inconclusive: 28.2 µM [inhibitor, partial curve] | – |
| COc1ccc(C(=O)Nc2cccc(C(=O)OCc3cc(=O)n4nc(C5CC5)sc4n3)c2)cc1 | inconclusive: 0.282 µM [inhibitor, full curve] | – |
| CS(=O)(=O)N1CCN(c2ccc([N+](=O)[O-])c(NCc3ccc(Cl)cc3)c2)CC1 | inconclusive: 14.1 µM [inhibitor, partial curve] | – |
| Nc1c(C(=O)Nc2ccc(F)cc2)sc2nc(-c3cccs3)cc(C(F)(F)F)c12 | inconclusive: 2.82 µM [inhibitor, full curve] | – |
| COC(=O)c1ccc([C@@H]2Nc3c(OC)ccc(C)c3[C@@H]3C=CC[C@@H]32)cc1 | active: 12.6 µM | – |
| CCN(CC)c1ccc(NC(=O)CCNC(=O)c2ccco2)cc1 | inconclusive: 10 µM [inhibitor, partial curve] | – |
| O=S(=O)(c1ccccc1)N1CCN(C2CCN(Cc3ccccc3)CC2)CC1 | inactive | – |
| Cc1ncoc1C(=O)N1CCCC(C(=O)c2ccc(C(F)(F)F)cc2)C1 (centres undefined) | inconclusive: 3.55 µM [inhibitor, full curve] | – |
